# Reference: PubChem BioAssay AID1631 (National Center for Advancing Translational Sciences (NCATS), 2009)
# About 890 (0.34%) of roughly 260,000 compounds were called active. Inconclusive results, whose numbers are uncertain, are shown with a selection of clear calls. Calls come from the whole dose curve; as a rule, active = well fitted activation curve with a large enough effect; inconclusive = small, poorly fitted or top-dose-only effect; inactive = no such curve, though single readings can be large or run the other way. Potencies of inconclusive entries are left out as doubtful fits.
# Molecular target: Pyruvate kinase PKM (Homo sapiens) (UniProt P14618)
# Assay: qHTS Assay for Activators of Human Muscle isoform 2 Pyruvate Kinase; note: nearly all actives have a fitted effect of over 55% in size
# Conditions: purified PKM2, Kinase-Glo ATP luminescence; Potency: activation; activation: at 57.5 µM (top of the series), 0% is enzyme alone, no compound
# Outline: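 hPK-M2, >95% pure; 0.1 mM ADP / 0.5 mM PEP final; imidazole pH7.2 buffer w/ 7 mM MgCl2, 50 mM KCl; 1 h RT; Kinase-Glo lum. Intermediate enzyme activity for dual inhibitor/activator qHTS.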
# % is set by controls: 0 for no effect and ±100 for the full control effect; potency is the fitted concentration of half-maximal effect; tags give direction and shape of the fitted curve.
# Chain of UniProt P14618 (P14618 whole entry, looked up, canonical isoform): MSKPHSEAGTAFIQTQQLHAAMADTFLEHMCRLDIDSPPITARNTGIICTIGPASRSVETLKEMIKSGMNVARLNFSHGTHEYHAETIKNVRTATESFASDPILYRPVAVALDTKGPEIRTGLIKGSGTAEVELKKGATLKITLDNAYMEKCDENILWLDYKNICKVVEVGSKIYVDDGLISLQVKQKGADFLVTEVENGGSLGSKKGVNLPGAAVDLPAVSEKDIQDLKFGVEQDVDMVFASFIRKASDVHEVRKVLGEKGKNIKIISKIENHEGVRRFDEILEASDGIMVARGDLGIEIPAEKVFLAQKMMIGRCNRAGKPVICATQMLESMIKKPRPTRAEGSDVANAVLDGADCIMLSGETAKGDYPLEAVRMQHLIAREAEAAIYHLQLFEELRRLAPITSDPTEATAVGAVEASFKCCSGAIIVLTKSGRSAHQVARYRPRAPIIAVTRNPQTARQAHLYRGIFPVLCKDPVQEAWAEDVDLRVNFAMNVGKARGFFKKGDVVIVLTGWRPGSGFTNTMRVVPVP
SMILES,Potency,activation
C/C=C\C=C\C(=O)N1CC2(CC(c3cccc(NC(=O)CC)c3)=NO2)C[C@H]1C(N)=O (stereo partly drawn),active: 7.94 µM,
CCS(=O)(=O)N1CCC(C(=O)NCc2ccc(F)cc2Cl)CC1,"inconclusive [rising, single point]",
Cc1noc(C)c1S(=O)(=O)N1CCC(C(=O)Nc2ccccn2)CC1,"inconclusive [rising, partial curve, poor fit]",
Cn1c(OCc2cccnc2)nc2c1c(=O)n(Cc1ccc(Br)cc1)c(=O)n2C,active: 20 µM,
Cc1cccc2sc(NS(=O)(=O)c3ccccc3)nc12,"inconclusive [rising, single point]",
O=[N+]([O-])c1cc(F)c2cccnc2c1O,"inconclusive [rising, single point]",
Cc1ccc(/C=C2/NC(=O)N(Cc3ccccc3)C2=O)o1,"inconclusive [rising, full curve]",
Cc1cccc(OCc2nnc(SCC(=O)Nc3cccc(C(=O)N4CCOCC4)c3)n2C)c1,"inconclusive [rising, single point]",
COc1ccc(-c2ccc(C(=S)N3CCN(C(C)=O)CC3)o2)cc1,"inconclusive [rising, partial curve]",
Cn1c(Cc2ccc3c(c2)OCO3)nnc1SCC(=O)N1CCc2ccccc2C1,"inconclusive [rising, single point]",
Nc1ccc2nc(CCCCCCc3nc4ccc(N)cc4[nH]3)[nH]c2c1,active: 12.6 µM,
Cc1ccc(S(=O)(=O)N(C)C)cc1NC(=O)CSc1nnnn1-c1ccc(O)cc1,"inconclusive [rising, partial curve]",
O=C1OC(c2ccc(Cl)cc2)=N/C1=C\C=C\c1ccco1,"inconclusive [rising, partial curve]",
O=C(CSc1nnc(-c2ccc([N+](=O)[O-])cc2)o1)Nc1ccccn1,"inconclusive [rising, partial curve]",
O=C(CSCc1ccc(Cl)cc1)Nc1nccs1,,inactive: -14%
COc1ccc(-c2n[nH]c(=S)n2N)c(OC)c1,,inactive: 1.73%
S=C(c1ccc(-c2ccc(Cl)c(Cl)c2)o1)N1CCOCC1,"inconclusive [rising, partial curve]",
O=C(CSc1nc2c(c(=O)[nH]1)CN(Cc1ccc(F)cc1)CC2)Nc1ccc(F)cc1,active: 15.8 µM,
COCCN1CCN(C(=O)c2ccc3nc(Cc4ccccc4F)oc3c2)CC1,"inconclusive [rising, partial curve]",
Cn1nnc(NC(=O)c2ccccc2)n1,,inactive: -21.8%
COc1cc(NC(=O)CCCSc2nc(-c3ccco3)cc(C(F)(F)F)n2)cc(OC)c1OC,"inconclusive [rising, single point]",
COc1ccc(CNC(=S)Nc2ccc3nc(N4CCOCC4)cc(C)c3c2)cc1,,inactive: -0.335%
CC1CCN(C(=O)CSc2nc3c(c(=O)n2C)SCC3)CC1,,inactive: -0.165%
CN1CCN(c2cc(C(F)(F)F)nc(-c3ccccn3)n2)CC1,,inactive: -2.78%
O=c1c2ccccc2[nH]c(=S)n1Cc1cccnc1,active: 25.1 µM,
C#CCOc1c(/C=C\c2nc(O)c([N+](=O)[O-])c(=O)[nH]2)cc(Br)cc1OC,,inactive: 0.344%

SMILES,Potency,activation
O=C(c1cccc(S(=O)(=O)Nc2ccc(Br)cc2)c1)N1CCC1,"inconclusive [rising, partial curve]",
Cc1nn(CCC#N)c2[nH]c(=O)cc(C(F)(F)F)c12,"inconclusive [rising, single point]",
O=C(N/N=C/c1ccncc1)c1cc([N+](=O)[O-])cc([N+](=O)[O-])c1O,"inconclusive [rising, single point]",
O=C(OCCN1CCOCC1)C(c1ccccc1)c1ccccc1,,inactive: -0.803%
CCCCc1c(C)nn(-c2nnc3c4ccccc4n(C)c3n2)c1C,,inactive: 1.01%
COCCn1c(C)cc(C(=O)CSc2nc3ccccc3s2)c1C,,inactive: 8.51%
CCOC(=O)C1=C(Cc2ccc(Cl)cc2)C(=O)c2ccccc2C1=O,,inactive: 1.47%
CSc1n[nH]c2nc3c(c(=O)n12)C1(CCCC1)Cc1ccccc1-3,,inactive: -9.36%
Cc1ccccc1-c1cc(=O)c2c(O)cccc2o1,,inactive: 5.55%
O=c1c2ccccc2nnn1Cc1nnc(-c2ccccc2Br)o1,"inconclusive [rising, single point]",
O=S(=O)(c1ccc(OCC2CO2)cc1)c1ccc(OCC2CO2)cc1 (stereo not drawn),"inconclusive [rising, single point]",
CCOC(=O)c1c(CSc2ccccc2)oc2cc(Br)c(O)c(CN(C)C)c12,"inconclusive [rising, partial curve]",
COc1ccccc1N(O)C1CC(=O)N(c2ccc(Br)cc2)C1=O (stereo not drawn),,inactive: 13.6%
CCN(CC)c1ccc(/C=N/NC(=O)c2ccco2)c(O)c1,,inactive: -8.35%
CC(C)(C)c1ccc(C(=O)NCCn2c(N)c(C#N)c3nc4ccccc4nc32)cc1,"inconclusive [rising, single point]",
Cc1nc(COC(=O)c2ccc(CO)cc2)cs1,"inconclusive [rising, single point]",
Cc1c(C(=O)NCc2ccc3c(c2)OCO3)oc2ccc(S(=O)(=O)N3CCCC3)cc12,"inconclusive [rising, single point]",
CCOc1ccc(CNc2ccc(CNc3ncn[nH]3)cc2)cc1,,inactive: -0.0232%
Cc1ccc(/C=C/C(=O)Nc2cccc(S(=O)(=O)N3CCOCC3)c2)o1,"inconclusive [rising, partial curve]",
CC(=O)Oc1cccc(N2C(=O)c3ccc(C(=O)O)cc3C2=O)c1,,inactive: -21.7%
CCCC(=O)OCCNc1cc(Sc2nc3ccccc3[nH]2)c2nonc2c1[N+](=O)[O-],"inconclusive [rising, partial curve]",
CCCOc1ccccc1NC(=O)/C=C/C(N)=O,"inconclusive [rising, partial curve]",
CC(C)Cc1cc(C(=O)Nc2ccccc2)c2ccccc2n1,,inactive: 0.286%
CC(C)(C)C(=O)NC(=C(Cl)Cl)P(=O)(O)O,"inconclusive [rising, single point]",
CC(=O)Nc1ccc(S(=O)(=O)N2CCN(C(=O)C3COc4ccccc4O3)CC2)cc1 (stereo not drawn),,inactive: 4.28%
O=C(Nc1ccc(Br)c2cccnc12)c1ccc(Cn2cc(Cl)cn2)o1,"inconclusive [rising, full curve]",

SMILES,Potency,activation
O=C(NCCCN1CCCCC1)C1(S(=O)(=O)c2ccc(Cl)cc2)CC1,"inconclusive [rising, single point]",
COc1cccc(C(Nc2ccccn2)c2oc(CO)cc(=O)c2O)c1 (stereo not drawn),"inconclusive [rising, full curve]",
Cc1ccc(NC(=O)CSc2nc(NS(=O)(=O)c3ccccc3)cc(=O)[nH]2)cc1,,inactive: -1.57%
Cc1cc(N2CCN(S(=O)(=O)c3ccc4c(c3)OCCO4)CC2)n2ncnc2n1,active: 25.1 µM,
Cc1nc(Oc2ccccc2)c2ccccc2n1,,inactive: 10.3%
Cc1cc(-c2ccccc2)nc(N(C)NC(=O)c2c(F)cccc2F)c1S(C)(=O)=O,,inconclusive: -41.5%
Cc1ccc(-c2ccc(CCC(=O)O)n2CC(=O)O)cc1,"inconclusive [rising, single point]",
Cc1nc(SCC(=O)Nc2ccc(OCc3ccccc3)cc2)n[nH]1,"inconclusive [rising, single point]",
Cc1ccc(S(=O)(=O)NCc2c(-c3ccccc3)noc2C)cc1,"inconclusive [rising, partial curve]",
O=C(CCc1ccccc1)Nc1ccc(S(=O)(=O)Nc2nccs2)cc1,"inconclusive [rising, partial curve]",
O=c1c2c(-c3ccco3)csc2nc(SCc2cn3cccnc3n2)n1-c1ccccc1,"inconclusive [rising, single point]",
Cc1ccc2c(c1)C(c1ccc(O)cc1)(c1ccc(O)cc1)C(=O)N2C,"inconclusive [rising, single point]",
COc1cccc(-c2nn(C)c3sc(C(=O)NCc4ccc(C)o4)cc23)c1,active: 2.51 µM,
COC(=O)C1C(=O)c2c([nH]c(C(=O)OCC3CCCO3)c2C)CC1C (stereo not drawn),"inconclusive [rising, single point]",
O=C(NCc1ccccc1Cl)c1cnn2cccnc12,"inconclusive [rising, partial curve, poor fit]",
Brc1cccc(OCCCN2CCCCCC2)c1,,inactive: -4.82%
CCn1c2ccccc2c2nnc(SCC(=O)Nc3cc(C)on3)nc21,"inconclusive [rising, full curve]",
COc1ccc(/C=N/Nc2ncnc3c2[nH]c2ccccc23)c(OC)c1OC,,inactive: -5.2%
Cc1ccc(C2=NOC(=O)/C2=C\C=C\c2ccccc2)cc1,"inconclusive [rising, single point]",
CCOC(=O)c1oc2ccccc2c1NC(=O)COc1cccc(OC)c1,,inactive: 1.39%
C(=N\N1CCN(Cc2cccc3ccccc23)CC1)/c1cccnc1,,inactive: -5.78%
O=C(CSC1=NCCS1)N1CCc2ccccc21,,inactive: 15.2%
OCCNCc1ccc(-c2ccccc2)cc1,,inactive: 5.09%
COC(=O)Nc1c(-c2ccccc2)nc2ccccn12,"inconclusive [rising, single point]",
CCCCC(=O)NCCc1cc2ccc(OC)cc2[nH]c1=O,,inactive: -2.07%
CC(C)=CCCC1=CCC2C(=O)NNC(=O)C2C1 (stereo not drawn),"inconclusive [rising, single point]",
